Test results from the supplement of paper PMC9588766.
Structures can show the parent of a compound that is named as a salt. ± gives the standard deviation of the averaged measurements. The full ranking holds about 2,000 compounds; the median of “cell viability relative to DMSO control (compound alone)” is about 0.98, and the lowest 2% start at about 0.23. The list shows a part of the results.

tested on: PDC-DUC18828; assay: cell viability relative to DMSO control (compound alone) (fraction); PDC-DUC18828 is a patient-derived cholangiocarcinoma cell line; higher = less growth inhibition; conditions: 1 µM; 72 h
Description: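 Selleck Bioactive library screen in the patient-derived FGFR2-G3BP2 fusion-positive ICC cell line PDC-DUC18828 (500 cells/well). Each compound was tested at 1 uM alone, in triplicate, for 72 h. Viability was read by CellTiter-Glo and normalised to plate DMSO controls.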

Q: Which cell viability does the source give for `O=C1CC[C@@]2(O)[C@H]3Cc4ccc(O)c5c4[C@@]2(CCN3CC2CC2)[C@H]1O5` [Naltrexone HCl] here?
A: The cell viability was 1.03 ± 0.054.

Q: For `CC(C)[C@]12O[C@H]1[C@@H]1O[C@]13[C@]1(O[C@H]1C[C@H]1C4=C(CC[C@@]13C)C(=O)OC4)[C@@H]2O` [Triptolide (PG490)], which cell viability is on record?
A: The cell viability was 0.238 ± 0.0074.

Q: For `CC(C)(C)c1cc(C=C(C#N)C#N)cc(Br)c1O`, which cell viability is on record?
A: Its cell viability is 0.985 ± 0.072.

Q: With `CC(NC(C)(C)C)C(=O)c1cccc(Cl)c1` (stereo not drawn) [Amfebutamone HCl] as the compound, how does the cell viability read?
A: Its cell viability is 0.902 ± 0.019.

Q: `CN1[C@@H]2C[C@@H](OC(=O)[C@H](CO)c3ccccc3)C[C@H]1[C@@H]1O[C@@H]12` [Scopolamine HBr] was tested. Which cell viability did it give?
A: Its cell viability is 1.05 ± 0.048.

Q: `C/C(=C\c1csc(C)n1)[C@@H]1C[C@@H]2O[C@@H]2CCC[C@H](C)[C@H](O)[C@@H](C)C(=O)C(C)(C)[C@@H](O)CC(=O)O1` [Epothilone A] was tested. Which cell viability did it give?
A: Its cell viability is 0.244 ± 0.018.

Q: For `COc1ccc(N(C(=O)Oc2c(C)cccc2C)c2ccnc(Nc3ccc(N4CCN(C)CC4)cc3)n2)c(OC)c1`, which cell viability is on record?
A: The cell viability was 0.992 ± 0.039.

Q: With `COC1=C[C@@H]2[C@@H]3Cc4ccc(OC)c(O)c4[C@]2(CCN3C)CC1=O` [Sinomenine] as the compound, how does the cell viability read?
A: The cell viability was 0.943 ± 0.057.

Q: `CN(C)CCc1ccc(O)cc1` [Hordenine] was tested. Which cell viability did it give?
A: The cell viability was 1.06 ± 0.024.

Q: With `N[C@@H]1C[C@H]1c1ccccc1` [Tranylcypromine (2-PCPA) HCl] as the compound, how does the cell viability read?
A: The cell viability was 0.969 ± 0.021.

Q: `Cc1sc2c(c1C)C(c1ccc(Cl)cc1)=N[C@@H](CC(N)=O)c1nnc(C)n1-2` was tested. Which cell viability did it give?
A: Its cell viability is 0.711 ± 0.022.

Q: How did the cell viability turn out when `[O-][n+]1ccccc1[S-].[O-][n+]1ccccc1[S-].[Zn+2]` [Zinc Pyrithione] was run?
A: The cell viability was 0.143 ± 0.017.

Q: With `C=CCN1CC[C@]23c4c5ccc(O)c4O[C@H]2C(=O)CC[C@@]3(O)[C@H]1C5` [Naloxone HCl] as the compound, how does the cell viability read?
A: The cell viability was 0.979 ± 0.075.

Q: How did the cell viability turn out when `C[C@@H]1CC[C@@]2(OC1)O[C@H]1C[C@H]3[C@@H]4CC=C5C[C@@H](O[C@@H]6O[C@H](CO)[C@@H](O[C@@H]7O[C@@H](C)[C@H](O)[C@@H](O)[C@H]7O)[C@H](O)[C@H]6O[C@@H]6O[C@@H](C)[C@H](O)[C@@H](O)[C@H]6O)CC[C@]5(C)[C@H]4CC[C@]3(C)[C@H]1[C@@H]2C` [Dioscin] was run?
A: Its cell viability is 0.648 ± 0.028.

Q: With `Cn1cc(C2=C(c3cn(C4CCN(Cc5ccccn5)CC4)c4ccccc34)C(=O)NC2=O)c2ccccc21` as the compound, how does the cell viability read?
A: The cell viability was 0.988 ± 0.054.

Q: With `Cc1cccc(Cc2c[nH]cn2)c1C` [Detomidine HCl] as the compound, how does the cell viability read?
A: Its cell viability is 1.04 ± 0.016.

Q: With `Cc1cccc(C)c1NC(=O)CN1CCCC1=O` [Nefiracetam] as the compound, how does the cell viability read?
A: The cell viability was 1.05 ± 0.043.

Q: How did the cell viability turn out when `O=c1ccc2cc(O[C@@H]3O[C@H](CO)[C@@H](O)[C@H](O)[C@H]3O)c(O)cc2o1` [Esculin] was run?
A: The cell viability was 1.06 ± 0.023.

Q: For `O=C(O)C(=O)c1cn(Cc2ccccc2)c2ccc(-c3ccc(OC(F)(F)F)cc3)cc12` [Tiplaxtinin (PAI-039)], which cell viability is on record?
A: The cell viability was 1 ± 0.042.

Q: `CN1CCCCC1Cn1cc(C(=O)c2cc([N+](=O)[O-])ccc2I)c2ccccc21` (stereo not drawn) was tested. Which cell viability did it give?
A: The cell viability was 0.958 ± 0.045.

Q: `c1ccc2c(c1)Nc1ccccc1S2` [Phenothiazine] was tested. Which cell viability did it give?
A: The cell viability was 0.958 ± 0.031.

Q: Which cell viability does the source give for `CC(=O)O[C@H]1C[C@@H]2CC[C@@H]3[C@H](CC[C@@]4(C)[C@H]3C[C@H]([N+]3(C)CCCCC3)[C@@H]4OC(C)=O)[C@@]2(C)C[C@@H]1[N+]1(C)CCCCC1` [Pancuronium dibromide] here?
A: The cell viability was 1.018 ± 0.0059.

Q: `O=C(NCC1CCOCC1)c1cnc(Nc2ccc(Cl)cc2Cl)nc1C(F)(F)F` was tested. Which cell viability did it give?
A: The cell viability was 0.988 ± 0.059.

Q: Which cell viability does the source give for `C[C@]12CC[C@H](O)CC1=CC[C@@H]1[C@@H]2CC[C@]2(C)C(=O)CC[C@@H]12` [Dehydroepiandrosterone (DHEA)] here?
A: The cell viability was 1.11 ± 0.065.

Q: How did the cell viability turn out when `c1ccc([C@@H]2C[C@H]2NC2CCNCC2)cc1` was run?
A: The cell viability was 1.05 ± 0.047.

Q: `COc1ccc(CC2NCCc3cc(OC)c(OC)cc32)cc1OC` (stereo not drawn) [Tetrahydropapaverine HCl] was tested. Which cell viability did it give?
A: Its cell viability is 1 ± 0.04.

Q: `CC[C@H](C)[C@@H]([C@@H](CC(=O)N1CCC[C@H]1[C@H](OC)[C@@H](C)C(=O)N[C@H](C)[C@@H](O)c1ccccc1)OC)N(C)C(=O)[C@@H](NC(=O)[C@@H](NC)C(C)C)C(C)C` [Monomethyl auristatin E (MMAE)] was tested. Which cell viability did it give?
A: Its cell viability is 0.261 ± 0.018.

Q: How did the cell viability turn out when `CC(C)OC(=O)[C@H](C)N[P@](=O)(CO[C@H](C)Cn1cnc2c(N)ncnc21)Oc1ccccc1` [Tenofovir Alafenamide (GS-7340)] was run?
A: The cell viability was 0.915 ± 0.027.

Q: For `O=[N+]([O-])c1ncc[nH]1` [Azomycin], which cell viability is on record?
A: Its cell viability is 1.06 ± 0.038.

Q: `O=c1cccc2n1C[C@@H]1CNC[C@H]2C1` [Cytisine] was tested. Which cell viability did it give?
A: The cell viability was 0.924 ± 0.055.

Q: How did the cell viability turn out when `CCN1CCN(C(=O)Cc2ccc(Nc3ncc(F)c(Nc4ccc(C(=O)Nc5ccccc5Cl)cc4)n3)cc2)CC1` [Aurora A Inhibitor I] was run?
A: The cell viability was 0.536 ± 0.026.

Q: For `CC(O)(CS(=O)(=O)c1ccc(F)cc1)C(=O)Nc1ccc(C#N)c(C(F)(F)F)c1` (stereo not drawn) [Bicalutamide], which cell viability is on record?
A: The cell viability was 0.91 ± 0.019.

Q: How did the cell viability turn out when `CCOC(=O)c1cncn1[C@H](C)c1ccccc1` [Etomidate] was run?
A: The cell viability was 1.01 ± 0.025.

Q: How did the cell viability turn out when `O=C(O)c1nn(Cc2ccc(Cl)cc2Cl)c2ccccc12` [Lonidamine] was run?
A: The cell viability was 1.02 ± 0.04.

Q: Which cell viability does the source give for `Cc1cc(C(C#N)c2ccc(Cl)cc2)c(Cl)cc1NC(=O)c1cc(I)cc(I)c1O` (stereo not drawn) [Closantel] here?
A: The cell viability was 1.08 ± 0.049.

Q: `Cc1cc(C(C#N)c2ccc(Cl)cc2)c(Cl)cc1NC(=O)c1cc(I)cc(I)c1O` (stereo not drawn) [Closantel Sodium] was tested. Which cell viability did it give?
A: The cell viability was 1.05 ± 0.04.

Q: How did the cell viability turn out when `CC(C)(C)c1cc(C=C(C#N)C#N)cc(C(C)(C)C)c1O` [Tyrphostin 9] was run?
A: The cell viability was 0.353 ± 0.043.

Q: With `CCc1cc2c(s1)-n1c(C)nnc1CN=C2c1ccccc1Cl` [Etizolam] as the compound, how does the cell viability read?
A: The cell viability was 0.984 ± 0.013.

Q: How did the cell viability turn out when `Cn1c(COP(=O)(NCCBr)NCCBr)cnc1[N+](=O)[O-]` was run?
A: The cell viability was 1.04 ± 0.047.

Q: With `Cc1sc2c(c1C)C(c1ccc(Cl)cc1)=N[C@@H](CC(=O)OC(C)(C)C)c1nnc(C)n1-2` as the compound, how does the cell viability read?
A: Its cell viability is 0.853 ± 0.088.

Q: `C/C(O)=C(\C#N)C(=O)Nc1cc(Br)ccc1Br` was tested. Which cell viability did it give?
A: Its cell viability is 1.02 ± 0.038.

Q: Which cell viability does the source give for `Cc1ccccc1-n1c(Cn2ncc3c(N)ncnc32)nc2cccc(C)c2c1=O` here?
A: The cell viability was 0.995 ± 0.04.

Q: For `CCN(Cc1ccc(Cl)nc1)/C(=C/[N+](=O)[O-])NC` [Nitenpyram], which cell viability is on record?
A: The cell viability was 0.995 ± 0.07.

Q: For `CCC1(C)CC(=O)NC(=O)C1` [Bemegride], which cell viability is on record?
A: Its cell viability is 1.111 ± 0.011.

Q: For `COc1cc(OC)c(OC)cc1C=O` [Asaraldehyde], which cell viability is on record?
A: The cell viability was 1.05 ± 0.048.

Q: How did the cell viability turn out when `OC(c1ccccc1)(c1ccccc1)C1CCNCC1` [Azacyclonol] was run?
A: The cell viability was 1 ± 0.039.

Q: `C[C@H]1CNCCc2ccc(Cl)cc21` [Lorcaserin HCl] was tested. Which cell viability did it give?
A: Its cell viability is 1.03 ± 0.035.

Q: For `C=C1C[C@@H]2[C@H](CC[C@]3(C)C(=O)CC[C@@H]23)[C@@]2(C)C=CC(=O)C=C12` [Exemestane], which cell viability is on record?
A: Its cell viability is 1.01 ± 0.032.
